Measurements: US7592316B2, “Peptides as NS3-serine protease inhibitors of hepatitis C virus” (Schering Corporation, priority 2000, dated 2009)
*1 amine or outer side, *2 acyl side, *3 side chain or, on linkers, in order; H or OH if unused. Where a SMILES comes first, the peptide text is derived from it. [ ]: non-standard residue; d: D form. The star is where a group is joined. ξ: configuration not given here. Pro(3R,4S-CMe2) = CC1(C)[C@@H]2[C@@H](C(=O)O)NC[C@@H]21; Pro(3S,4R-CCl2) = O=C(O)[C@H]1NC[C@H]2[C@@H]1C2(Cl)Cl; Pro(3S,4R-CMe2) = CC1(C)[C@H]2[C@@H](C(=O)O)NC[C@H]21; Benzylsulfonyl = O=S(=O)(Cc1ccccc1)*; X8 = O=C(C(=O)[*:2])C(CC1CC1)N[*:1]; X4 = CCCCC(N[*:1])C(=O)C(=O)[*:2]; X2 = CCCC(N[*:1])C(=O)C(=O)[*:2]; Phg = N[C@H](C(=O)O)c1ccccc1; Tle = CC(C)(C)[C@H](N)C(=O)O; ξPhg = NC(C(=O)O)c1ccccc1; NHcHex = C1CCC(N*)CC1; X27 = O=C(OC1CCCCC1)*; CO = O=C([*:1])[*:2]; NHtBu = CC(C)(C)N*

Each compound was assayed against HCV NS3/NS4A protease (strain 1a) (Hepatitis C virus genotype 1a, UniProt P27958) (assay: biochemical). Details: Table 5; HCV NS3/NS4A protease, spectrophotometric assay, 30° C., pH 6.5; read-out: Ki* Range.

Compound | Ki
C=CCCC(NC(=O)[C@@H]1[C@@H]2[C@H](CN1C(=O)C(NC(=O)OC(C)(C)C)C1C=CCCCC1)C2(C)C)C(=O)C(=O)NCC=C (some centres unmarked) | 101 to 1000 nM
CCCC(NC(=O)C1C2C(CN1C(=O)[C@@H](NC(=O)C(NC(=O)OC(C)(C)C)C(c1ccccc1)c1ccccc1)C(C)(C)C)C2(C)C)C(=O)C(N)=O (some centres unmarked) | > 1000 nM
C=CCCC(NC(=O)[C@@H]1[C@H]2[C@@H](CN1C(=O)[C@@H](NC(=O)OC(C)(C)C)C(C)(C)C)C2(C)C)C(=O)C(=O)NCCNC(=O)OC(C)(C)C (some centres unmarked) | > 1000 nM
CCCCC(NC(=O)[C@@H]1[C@H]2[C@@H](CN1C(=O)[C@@H](NC(=O)OC1CCCCC1)C(C)(C)C)C2(C)C)C(=O)C(=O)NCC(=O)N[C@H](C(=O)N(C)C)c1ccccc1 (stereo partly drawn) (X27-[Tle][Pro(3S,4R-CMe2)][X4]G[Phg]-NMe2) | 1 to 100 nM
CCCC(NC(=O)[C@@H]1[C@@H]2[C@H](CN1C(=O)[C@@H](NC(=O)OC(C)(C)C)C(C)(C)C)C2(C)C)C(=O)C(=O)NCC=C(C)C (some centres unmarked) | 101 to 1000 nM
C=CCC(NC(=O)[C@@H]1[C@H]2[C@@H](CN1C(=O)[C@@H](NC(=O)OC(C)(C)C)C(C)(C)C)C2(C)C)C(=O)C(=O)NCC(=O)NC(c1ccccc1)c1ccccc1 (some centres unmarked) | 101 to 1000 nM
CCCC(NC(=O)[C@@H]1[C@H]2OC(C)(C)O[C@H]2CN1C(=O)[C@@H](NC(=O)OC(C)(C)C)C(C)(C)C)C(=O)C(=O)NCC(=O)NC(C(=O)N(C)C)c1ccccc1 (some centres unmarked) | 1 to 100 nM
CCCCC(NC(=O)[C@@H]1[C@@H]2[C@H](CN1C(=O)[C@@H](NS(=O)(=O)Cc1ccccc1)C(C)(C)C)C2(C)C)C(=O)C(=O)NCC(=O)NC(C(=O)N(C)C)c1ccccc1 (stereo partly drawn) (Benzylsulfonyl-[Tle][Pro(3R,4S-CMe2)][X4]G[ξPhg]-NMe2) | 101 to 1000 nM
CCCC(NC(=O)[C@@H]1[C@@H]2[C@H](CN1C(=O)[C@@H](NC(=O)NC1CCCCC1)C(C)(C)C)C2(C)C)C(=O)C(=O)NCC(=O)N[C@H](C(=O)N(C)C)c1ccccc1 (stereo partly drawn) ({NHcHex-CO}-[Tle][Pro(3R,4S-CMe2)][X2]G[Phg]-NMe2) | 1 to 100 nM
C=CCCC(NC(=O)[C@@H]1[C@H]2[C@@H](CN1C(=O)[C@@H](NC(=O)OC(C)(C)C)C(C)(C)C)C2(C)C)C(O)C(=O)NC/C=C/C(=O)OCC (some centres unmarked) | > 1000 nM

Continued, values first:

Ki | Compound
1 to 100 nM | CC(C)(C)OC(=O)N[C@H](C(=O)N1C[C@@H]2[C@H]([C@H]1C(=O)NC(CC1CCC1)C(=O)C(N)=O)C2(C)C)C1CCC(F)(F)CC1 (some centres unmarked)
1 to 100 nM | CC1(C)[C@H]2[C@@H](C(=O)NC(CC3CCC3)C(=O)C(N)=O)N(C(=O)[C@@H](NC(=O)OC3CCCCC3)C3CCCCC3)C[C@H]21 (some centres unmarked)
101 to 1000 nM | C=CCCC(NC(=O)[C@@H]1[C@H]2[C@@H](CN1C(=O)[C@@H](NC(=O)NC(C)(C)C)C1CCCCC1)C2(C)C)C(=O)C(=O)NCC=C (some centres unmarked)
1 to 100 nM | CCOC1(OC(=O)N[C@H](C(=O)N2C[C@H]3[C@@H]([C@H]2C(=O)NC(CC2CC2)C(=O)C(N)=O)C3(C)C)C2CCCCC2)CC1 (some centres unmarked)
101 to 1000 nM | CC1(C)[C@@H]2[C@@H](C(=O)NC(CC3CC3)C(=O)C(N)=O)N(C(=O)[C@@H](NC(=O)NC3CC3)C3CCCCC3)C[C@@H]21 (some centres unmarked)
1 to 100 nM | CC(C)(C)NC(=O)N[C@H](C(=O)N1C[C@@H]2[C@H]([C@H]1C(=O)NC(CC1CC1)C(=O)C(N)=O)C2(Cl)Cl)C(C)(C)C (some centres unmarked)
101 to 1000 nM | C=CCCCC(NC(=O)[C@@H]1[C@@H]2[C@H](CN1C(=O)[C@@H](NC(=O)OC(C)(C)C)C1CCCCC1)C2(C)C)C(=O)C(=O)NCC=C (some centres unmarked)
101 to 1000 nM | CN(C)C(=O)N[C@H](C(=O)N1C[C@@H]2[C@H]([C@H]1C(=O)NC(CC1CCC1)C(=O)C(N)=O)C2(C)C)C1CCCCC1 (some centres unmarked)

Same assay, conditions: Table 6; HCV NS3/NS4A protease, 30° C., pH 6.5; read-out: Ki*

Compound | Ki
CN(C)C(=O)C(NC(=O)CNC(=O)C(=O)C(CC1CC1)NC(=O)[C@@H]1[C@@H]2[C@H](CN1C(=O)[C@@H](NC(=O)NC(C)(C)C)C(C)(C)C)C2(Cl)Cl)c1ccccc1 (stereo partly drawn) ({NHtBu-CO}-[Tle][Pro(3S,4R-CCl2)][X8]G[ξPhg]-NMe2) | 1 to 100 nM
CCCNC(=O)C(=O)C(CCC)NC(=O)[C@@H]1[C@@H]2[C@H](CN1C(=O)[C@@H](NC(=O)OC(C)(C)C)C1Cc3ccccc3C1)C2(C)C (some centres unmarked) | 101 to 1000 nM
C[C@@H](NC(=O)N[C@H](C(=O)N1C[C@@H]2OC(C)(C)C[C@@H]2[C@H]1C(=O)NC(CC1CC1)C(=O)C(=O)NCC(=O)NC(C(=O)N(C)C)c1ccccc1)C1CCCCC1)C(C)(C)C (some centres unmarked) | 1 to 100 nM

Results, then the compound that gave them:

Ki | Compound
101 to 1000 nM | CCCC(NC(=O)[C@@H]1[C@@H]2[C@H](CN1C(=O)[C@@H](NC(=O)OC(C)(C)C)C1CCCCC1)C2(C)C)C(=O)C(=O)N[C@@H](CC(=O)N(C)C)c1ccccc1 (some centres unmarked)
101 to 1000 nM | C=CCNC(=O)C(=O)C(CCC)NC(=O)[C@@H]1[C@@H]2[C@H](CN1C(=O)C(NC(=O)OC1CCC(C)(C)C1)C1CCCCC1)C2(C)C (some centres unmarked)
